The campaign covered roughly 150,000 compounds. About 540 (0.36%) showed an effect of 50% or more. The list shows a part of the results.
Test system: Plasmodium falciparum
Assay: Primary screen in NF54 nanoGlo assay, in single point, at 2uM, 72h; a lower Z score goes with more inhibition
Assay type: functional, Erythrocyte
Conditions: timepoint 72 hour

Structure (SMILES) | % Inhibition [%] | Z score
CCC(=O)NCC(=O)N1CCCC2(CCCCCC2)C1 | -2 | 0.23
CN(C)c1nccc(CN2CCC[C@H]2C(=O)NCC2CCCCC2)n1 | -15 | 1.57
N#Cc1ccccc1Cn1nc(-c2ccco2)n(C2CC2)c1=O | -21 | 2.38
CS(=O)(=O)N1CCC(C(=O)N[C@]2(CO)COc3ccccc3C2)CC1 | -3 | 0.41
Cc1cc(C(=O)N2CC[C@H](N)C2)c2cc(Br)ccc2n1 | 4 | -0.57
CCCCN1CCc2[nH]cnc2[C@H]1c1cc(C)ccc1-n1cccn1 | -8 | 0.74
Cc1ccc(OC/C=C/Cn2ccnc2)cc1C | -5 | 0.58
CCOc1ccc(CNC(=O)[C@H]2CCCN(c3nccnc3Oc3ccc(C)cc3)C2)cc1OCC | 6 | -0.68
O=C(NCc1cccc(CO)c1)C1CCCCC1C(F)(F)F (configuration not stated) | 0 | -0.04
CCN1c2cc(C)ccc2-n2cccc2C12CCN(C(=O)Nc1ccc(Br)cc1F)CC2 | -16 | 3.06
COc1ncccc1CNc1c(C#N)cnc2c(C)cccc12 | -10 | 1.53
Cc1cccc2c1ncn1c(=O)n(CC(=O)Nc3ccc4c(c3)OCCO4)nc21 | -1 | 0.17
CCOCC1(CNC(=O)[C@H](C)N2CCCC2=O)CCC1 | 3 | -0.56
Cc1cnc(NC(=O)NC[C@H]2CCCO2)s1 | -2 | 0.38
CN(Cc1cn(C)nn1)C(=O)NCc1cc(Cl)sc1Cl | -12 | 2.13
CC(C)N(C)c1ccc(C=Cc2cnc(C(=O)O)cn2)cn1 | -1 | 0.18
CN(CC#CCNC(=O)NC(C)(C)C)Cc1ccccc1 | 6 | -0.91
CCc1ncc(C(=O)N2CCN(S(C)(=O)=O)CC2)cn1 | -5 | 0.83
CCOCCCC(=O)N[C@@H](c1ccccc1)c1ccc2nc(C(F)(F)F)[nH]c2c1 | 11 | -1.97
Cc1nnc(CNS(=O)(=O)c2ccc(C(=O)N3CCC[C@@H]3C)cc2)o1 | -2 | 0.3
CCCCCNC(=O)c1cccc(Oc2ccnc(-c3cccc(F)c3)n2)c1 | -3 | 0.62
Cc1ncccc1CNC(=O)Nc1ccnn1[C@@H](C)CC(C)C | -8 | 1.02

Structure (SMILES) | % Inhibition [%] | Z score
CCC(C)c1nc(C2CC(=O)N(Cc3ccccc3)C2)no1 (configuration not stated) | -3 | 0.48
CCc1cc(CNc2nc3c(cc2C(N)=O)CCC3)on1 | -4 | 0.51
O=C(NCCc1nccn1C(F)F)C(=O)Nc1c(F)cccc1F | -3 | 0.57
CC(C)[C@@H](O)CN1CCC2(CCc3ccccc3C2=O)CC1 | 2 | -0.37
Cc1cccc(NC(=O)[C@]2(C)CCCCC(=O)N2)c1 | 4 | -0.45
COc1cccc(NC(=O)O[C@H]2COCCN(c3nc4ccccc4o3)C2)c1 | 18 | -2.15
Cn1cnnc1[C@@H]1CCCCN1C(=O)CCc1c[nH]c2ccccc12 | -3 | 0.38
O=C(c1cn2cccnc2n1)N1CCC[C@H](c2[nH]ncc2Cc2ccccc2)C1 | -7 | 1.35
CCNS(=O)(=O)C1CCN(C(=O)NC2C3CCc4ccccc4C32)C1 (configuration not stated) | 0 | -0.04
COc1ccccc1CNC(=O)c1ccc(S(=O)(=O)c2ccc(C)cc2)s1 | -6 | 0.57
CCC(=O)Nc1cc(C(=O)OC)cc(C(=O)OC)c1 | -9 | 1.08
CCN(C(=O)NC[C@H]1COc2ccccc2O1)C1CCCC1 | -10 | 1.35
CC[C@@H]1C(=O)NCCCN1Cc1nnc(-c2ccc(Cl)cc2)n1C | -1 | 0.15
COc1cc(C(=O)N(Cc2ccccc2C(F)(F)F)C2COC2)ccc1OC(F)F | -7 | 0.63
Cc1nc(C(C)C)oc1C(=O)N1CCC(OC2CCC2)CC1 | -7 | 0.73
Cc1ccccc1Cc1nc([C@H]2CCOC2)nn1CCO | 6 | -0.79
CC(NCC(C)(C)C)C(C)n1cccn1 (configuration not stated) | -1 | 0.12
CNc1cc(C)nc(N2C[C@H](NS(C)(=O)=O)[C@@H](C(C)C)C2)n1 | -7 | 0.88
CCOC(=O)N1CCN(C(=O)c2c(-c3ccc(Cl)cc3)c3cc(Cl)ccc3n2C)CC1 | -6 | 0.9
Cc1cc(NS(=O)(=O)c2cnn3c2OCC(C)(C)C3)cnc1C | -2 | 0.42
CC(C)CC(=O)Nc1nc(C(=O)N(C)CCN(C)C)cs1 | -12 | 2.04
Fc1cc(Cl)ccc1OC[C@@H]1CCCN2CCCC[C@H]12 | 17 | -2.29

Structure (SMILES) | % Inhibition [%] | Z score
COC[C@](C)(O)C(=O)NCC1CCCCCCC1 | -4 | 0.58
Cc1ccc(CCC(=O)N2CCC2)c(C)c1 | -8 | 0.89
O=C(c1ccco1)N1CCC(c2nc3ccccc3o2)CC1 | -26 | 2.26
CC1CN(CC(C)(C)F)CCC1NC(=O)OC(C)(C)C (configuration not stated) | -7 | 1.2
O=C(NC1CCCCCC1)NC1CCCCCC1 | -4 | 0.65
COc1ccc(CC[C@H](C)N2CCN(c3cccc(C)c3C)CC2)cc1 | 1 | -0.09
Cn1ccc(C2CCN(c3ccc(C(N)=O)nn3)CC2)n1 | -16 | 2.69
O=C(c1cncc(F)c1)N(C1CCCCC1)[C@H]1CCS(=O)(=O)C1 | 0 | 0.01
O=C1N(CC2CC2)CCC[C@@]12CCN(Cc1cc3ccccc3o1)C2 | 7 | -0.89
CN(C)c1ccc(/C=C2/CCCC3C2=NN(c2ccccc2)C3c2ccccc2)cc1 (configuration not stated) | -1 | 0.17
Cc1cc(C)nc(NC(=O)c2cnn(-c3cccnc3)c2)c1 | -3 | 0.5
CCc1cnc(CN(C)C(=O)N[C@@H](CC)c2nc(C)cs2)s1 | -20 | 1.66
CC(=O)NCCC(=O)Nc1ccc(C)c(Cl)c1 | -3 | 0.41
C[C@@H](CCC(=O)NC1(c2cc(F)cc(F)c2)CC1)N1CCCC1 | -14 | 1.36
Cc1cc(C)nc(-n2[nH]c(C(=O)N(C)[C@@H](C)c3ccccc3)c(CCO)c2=O)n1 | -12 | 2.02
CCCn1cc(NC(C)CC2COCCN2C(=O)OC(C)(C)C)cn1 (configuration not stated) | -8 | 0.71
Cc1ncsc1CCS(=O)(=O)C[C@H]1CCCO1 | -7 | 0.84
CCc1ccc(-c2nccn2CCc2nc(C)c(C)s2)nc1 | 4 | -0.46
COC1CS(=O)(=O)CC1NC(=O)Nc1cnc(CC2CC2)nc1 (configuration not stated) | -9 | 1.43
CCc1cc(NC(=O)c2c(CC)noc2C)nc(C)n1 | 14 | -1.74
COc1cc(=O)n(-c2ccccc2)cc1C(=O)NC1CC2CCC(C1)N2S(C)(=O)=O (configuration not stated) | -26 | 4.38
CC1(C)CCC[C@@]2(C1)NC(=O)N(CC(=O)Nc1ccc3c(c1)CCC(=O)N3)C2=O | -11 | 1.4

Structure (SMILES) | % Inhibition [%] | Z score
O=C(O)c1cccc(N[C@H]2CCN(S(=O)(=O)c3ccccc3)C2)n1 | -17 | 3.2
Cc1ccccc1CNC(=O)N1CC[C@]2(CC(=O)NC2=O)C1 | -9 | 1.3
CC(CNC(C)c1ccc(-n2cnnn2)cc1)c1cccs1 (configuration not stated) | -14 | 1.16
COc1ccc(OCCNC2CCCC(C)C2C)cc1 (configuration not stated) | 2 | -0.24
CCCc1ccc(S(=O)(=O)N2CCN(Cc3nc4cccnc4n3-c3ccc(C)cc3)CC2)cc1 | -13 | 1.73
O=C(Nc1cccc(Cl)c1)C(=O)c1cccn1Cc1ccccc1 | 8 | -1.38
COc1ccc2[nH]c3c(c2c1)CCN(C(=O)Nc1cc(C)ccc1OC)[C@@H]3c1ccc(C)cc1 | 12 | -1.43
CC(C)C(Cn1cccn1)NCC1CCCN1CCc1ccccc1 (configuration not stated) | -9 | 1.06
CN(CC1(CO)CCOCC1)C(=O)Nc1cccc(-c2cnc[nH]2)c1 | -16 | 1.6
Cc1nscc1C(=O)N1CCC[C@H](NCc2ccccc2)C1 | -12 | 1.6
CNC(=O)[C@@H](C)CN(C)Cc1ccccc1-c1ccnn1C | -16 | 1.77
COc1ccc(-c2nc(C)c(C(=O)NCc3c(C)nn(C)c3C)s2)cc1OC | -15 | 1.83
Cc1nonc1CN(C)c1ccc(-c2nc(-c3cccc(Cl)c3)no2)cn1 | -23 | 2.17
CN(CCN1C(=O)NC2(CCCC2)C1=O)[C@H]1CCN(CC(F)(F)F)C1=O | -8 | 1.06
NC(=O)c1cc(C2CCCN(CC(O)c3ccccc3F)C2)n[nH]1 (configuration not stated) | -8 | 1.23
CC(CC(=O)O)N1CCN(C(=O)C2CCc3ccccc3C2)CC1 (configuration not stated) | -10 | 1.25
CN(C)c1ccc(CN[C@H]2CC(C)(C)[C@@H]3C[C@@](C)(O)CC[C@]23CCC(=O)N2CCOCC2)cc1 | 10 | -1.16
Cc1cc(C)cc(CN2C(=O)C(=O)N(c3ccc(C)cc3C)C2=O)c1 | -13 | 1.55
CCC[C@]1(CO)CCCN(C(=O)c2nnc3n2CCCCC3)C1 | -3 | 0.65
CCc1cnc(Cn2c(=O)c3c(C(F)(F)F)cc(C)nc3n2C)o1 | -7 | 0.8

Reference: ChEMBL document CHEMBL4888484, “Replenishing the malaria drug discovery pipeline: Screening and hit evaluation of the MMV Hit Generation Library 1 (HGL1) against asexual blood stage Plasmodium falciparum ,using a nano luciferase reporter read-out” (2022)
